The supplement of paper PMC4466236
Over roughly 33,000 sequences, “E-score (dimensionless, -0.5 to 0.5)” has its median near -0.058; the highest 2% begin near 0.35. This is one part of the list.

Tested on: MvaT
Assay: PBM 8-mer E-score (mean of HK and ME arrays) (E-score (dimensionless, -0.5 to 0.5)); higher = stronger relative binding preference; most listed sequences are background and not binding sites
Procedure: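 Protein binding microarray: GST-tagged full-length MvaT (P. aeruginosa PAO1) bound to two universal double-stranded 60-mer arrays (ME and HK), each with a constant 25-mer primer and a variable 35-mer region covering all 8-mers. The 8-mer E-score (rank-based, range -0.5 to 0.5, >0.45 = specific binding) is the mean of the two arrays.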

Sequence	PBM 8-mer E-score
ACGGGAGT	-0.192
AAGCCCTA	-0.189
CTTAACAC	0.122
CCCTGCAA	-0.134
GTATCAAA	0.089
CCTTGGCA	-0.23
CACATTCC	0.0346
CCCATAGG	-0.216
AAGGGGCC	-0.346
CTGGCCAA	-0.176
CGGCTATC	-0.193
GTTATCGA	0.0887
ACTTAAAA	0.226
ATGCGCGC	-0.021
ACGGTTGC	-0.0117
ACATAGCC	-0.128
AGAGAACA	0.0712
CCCTATTC	-0.0171
AGGAGCCG	-0.264
ATTCCCGC	0.00135
CCCGCTGA	-0.161
AGGCAGAG	-0.105
AACTATTC	0.255
ACTCCACC	-0.0666
GGTGGTCA	-0.0917

Sequence	PBM 8-mer E-score
TGTGGAAA	0.0507
ATCTTTTC	0.149
CCAACGCG	-0.14
AACGCCAT	-0.0432
CACGAAGG	-0.186
CTGCATGA	-0.201
AACGACGT	0.0245
ATGACCAT	-0.0431
CATCACAG	-0.147
CCCGGCGA	-0.269
CCCCTAAC	-0.0399
GAGCAAAC	-0.0867
GAAGCGGA	-0.142
AGGACTAT	0.0169
GCAAACGA	-0.15
ACGCGAGA	-0.06
CTATCTTC	-0.038
GGAGTACC	-0.231
ATGAAATC	0.0602
ACACCCGA	-0.0287
GCTGAACC	-0.169
AAGATTCC	-0.0739
ACCACTGA	-0.0828
ATATAGTC	0.361
CCCCCTAC	-0.36

Sequence	PBM 8-mer E-score
CCAATGAA	-0.1
CGTGTATC	0.00917
GGAACCGA	-0.165
CCCTCGTA	-0.188
CGCCCGGC	-0.262
AGGGCGTG	-0.185
AGTATATG	0.351
CATTGACA	0.15
ACTCGTTG	-0.0973
TGTTCGAA	0.156
AACATGAA	0.286
GAGGTTGC	-0.182
AGAACTCC	-0.204
GTGGGGTA	-0.145
CCCTTCGA	-0.274
GAAATCGA	0.0851
TCCCGGAA	-0.126
AAGACAGC	0.081
ATTTTAAC	0.307
ATTCACCC	0.00296
AGAATCCT	-0.113
TAGTGTCA	0.132
AGCTTCAA	-0.0478
CGCTCTCA	-0.255
AATAGGAT	0.0576

Sequence	PBM 8-mer E-score
TACGTTGA	0.0324
CTCGTTTC	-0.0709
CGAGGCAC	-0.239
CCGTAATA	0.287
CGAGAGAA	0.00368
GGAATTAC	0.149
ATAGGTTC	-0.0175
GTTCGAAA	0.0482
AAGTTTTA	0.318
CGTTATCA	0.111
CTTATGAA	0.153
TACAGTAA	0.328
AACCCCCT	-0.319
CATGGAAG	-0.173
ATGACGGG	-0.106
ATTACATG	0.307
ACTCTGTA	-0.00202
AAGCAATC	-0.00724
AAAGTAGC	-0.00641
AACGACCC	-0.206
GCACTATA	0.279
ATGTCTGC	-0.0286
TCGCGTCA	-0.0789
CCCGGAGC	-0.185
GTCCATTA	0.0833

Sequence	PBM 8-mer E-score
ATTCTTCC	0.128
GCACACCA	0.00852
CATCTCCG	-0.186
CCCACTCC	-0.283
AAGCCACA	-0.0582
CCGCCATA	-0.00214
GATATACA	0.205
AGAGTCCG	-0.298
ACCTTGTC	-0.198
AGAGTTCC	-0.165
ACTCCGTG	-0.114
CGAGGTCC	-0.148
AAACCTCT	-0.0484
ATTCCATG	0.194
GACCATCC	-0.148
AAACTGGG	0.00238
CTATGCCC	-0.194
ATTACGCA	0.263
AGGGGCCG	-0.268
ATGCATTG	0.138
CCGATAAA	0.21
CACAGACA	-0.0385
CTCCTAAG	-0.0572
GGGTGATA	-0.0167
ACTACACA	0.107

Sequence	PBM 8-mer E-score
AACAGGTC	-0.14
ATGAAAAC	0.212
TGACAGAA	-0.151
CGCGATAA	0.143
CAGATGGA	-0.0311
CTAAATCC	0.0361
GCTTGTAA	0.0867
ATCCATGG	-0.0323
AGTTCTCC	-0.111
AACGCTAA	0.197
CTTTGGTC	-0.0265
CGGGATTC	-0.163
CATTGAGG	-0.142
AGCACTAA	-0.00924
AGGTAGGC	-0.179
CACGTCGA	-0.042
CCTTGGTA	-0.225
GGCTACAC	-0.187
AATTTTCG	0.238
AGGACAAG	-0.075
ACAAGTAC	0.123
CACAGCAC	-0.0801
AAAGACGA	0.0809
GGATCGCC	-0.321
GACAGGTA	-0.0934

Sequence	PBM 8-mer E-score
AGGGAGAG	-0.161
GGATCAAA	-0.0216
AAGACCAT	-0.0607
CCGGGACC	-0.311
ATGTTTCA	0.316
GAAGGGAC	-0.244
AAGCTGAT	0.0252
CCTATAGA	-0.0441
CCCCGAAG	-0.273
CGTATATA	0.378
CTCACAAG	-0.132
GAGATCAA	-0.118
ATCGATGA	-0.126
CCTCTCCC	-0.212
AGAGTTCG	0.00443
GTGACGTA	-0.1
AGTTCCAG	0.0982
CGTAAGGA	-0.152
CAGGCCTA	-0.194
CCTCAGAA	-0.0368
CACTGATA	0.122
ACCTACGA	-0.0935
